The supplement of paper PMC9433436
± gives the standard deviation of the averaged measurements. Whole data set: some 4,100 sequences, median “relative kcat/Km (krel) vs genomic leader AAAGAU” near 1.7, cut for the highest 2% near 6.5. The list shows a part of the results, in another mix than the full data.

Target: T1, E. coli RNase P holoenzyme (M1 P RNA + rnpA protein) (UniProt P0A7Y8)
T1 sequence: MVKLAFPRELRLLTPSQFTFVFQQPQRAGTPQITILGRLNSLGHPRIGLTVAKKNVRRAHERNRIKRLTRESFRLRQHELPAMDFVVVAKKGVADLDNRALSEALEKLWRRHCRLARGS
Experiment: relative kcat/Km (krel) vs genomic leader AAAGAU (relative (reference leader = 1)); higher = faster RNase P cleavage
Procedure: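 HTS-Kin: a pool of ptRNA-Met (21C construct) with all 4096 combinations of 5' leader nucleotides N(-6) to N(-1) was processed in vitro by E. coli RNase P (P RNA + rnpA/C5 protein) under multiple-turnover conditions at 37 C, pH 8, 17.5 mM MgCl2. Residual substrate was Illumina-sequenced at several fractions reacted, and relative kcat/Km (krel) was computed by internal competition kinetics, calibrated to the genomic leader (AAAGAU = 1). The listed hexamer is the varied N(-6)..N(-1) leader (DNA letters), and it sits between a fixed 5' stem-loop flank (GCAUGCACGAAAGUGCGUGCUAUGAA) and the mature tRNA-Met starting GGCUACGUAGCUCAGUUGG. Two technical replicates are averaged.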

[1] = fraction of substrate reacted: ~9-10% (9.79% repeat 1, 9.1% repeat 2)
[2] = fraction of substrate reacted: ~13-16% (15.68% repeat 1, 13.17% repeat 2)
[3] = fraction of substrate reacted: ~26-29% (28.66% repeat 1, 26.4% repeat 2)

Sequence | relative kcat/Km [1] | relative kcat/Km [2] | relative kcat/Km [3]
GCTATT | 1.8 ± 1.4 | 1.66 ± 0.13 | 2.42 ± 0.74
TCGTCG | 2.21 ± 2 | 0.914 ± 0.037 | 2.54 ± 0.36
CGGTCC |  |  | 0.889 ± 0.14
ATGCTT | 1 ± 0.46 | 0.914 ± 0.33 | 1.21 ± 0.11
GGTCGG |  |  | 1.11 ± 0.022
AGGACA | 0.85 ± 0.69 |  | 1.09 ± 0.055
GGAGGC |  |  | 1.17 ± 0.87
GATGAC | 2.24 ± 0.28 | 3.37 ± 1.1 | 3.78 ± 0.99
AGGATG |  |  | 0.66 ± 0.62
TCCAGT |  |  | 2.37 ± 1.9
CTGCGC | 2.66 ± 0.34 | 1.36 ± 0.78 | 1.85 ± 0.5
CCTACC | 1.71 ± 0.4 | 0.951 ± 0.36 | 2.17 ± 0.89
TAAGAA | 1.86 ± 0.2 | 2.65 ± 0.13 | 3.35 ± 1.5
TTGCAC | 2.41 ± 1.3 | 2.27 ± 0.05 | 3.33 ± 0.78
TGATCA | 2.5 ± 0.96 | 2.721 ± 0.0099 | 3.08 ± 0.97
ACGCAA | 1.95 ± 1.4 | 1.95 ± 0.18 | 2.25 ± 0.13
CGCTTA | 2.24 ± 0.029 | 2.53 ± 0.65 | 4.1 ± 1.3
AAACTC | 1.47 ± 0.23 | 1.31 ± 0.23 | 1.87 ± 0.79
TTGAGG |  | 0.396 ± 0.31 | 0.878 ± 0.018
ACTGTC | 1.77 ± 1.3 | 0.935 ± 0.31 | 1.12 ± 0.25
AAAAAA |  | 0.905 ± 0.46 | 1.34 ± 0.51
GCGTTG | 0.523 ± 0.22 |  | 0.93 ± 0.16
TGTACC | 2.23 ± 1.2 | 2.25 ± 0.53 | 3.02 ± 1.1

Sequence | relative kcat/Km [1] | relative kcat/Km [2] | relative kcat/Km [3]
ATAGGA |  |  | 1.47 ± 1.2
CTCATA | 3.84 ± 2.5 | 4.93 ± 0.27 | 6.23 ± 2.5
CGACGC | 1.56 ± 0.22 | 2.23 ± 1.2 | 3.33 ± 1.1
GTATGA | 3.37 ± 1.2 | 3.58 ± 0.83 | 5.31 ± 1.5
CCGGAC | 1.19 ± 0.53 | 1.26 ± 0.22 | 1.06 ± 0.4
GCGCAC | 1.47 ± 0.19 | 1.68 ± 0.2 | 2.71 ± 0.92
TCGCAT | 2.12 ± 0.11 | 3.11 ± 0.57 | 5.13 ± 2.3
TGCTAG | 1.97 ± 1.5 | 1.376 ± 0.0054 | 2.44 ± 0.12
GAGACG | 0.628 ± 0.54 |  | 0.922 ± 0.017
AGAGAC | 3.09 ± 1.1 | 2.96 ± 0.46 | 3.89 ± 1
CGCGGC | 0.659 ± 0.64 | 0.88 ± 0.63 | 0.918 ± 0.47
GCAAGT |  |  | 2.03 ± 1.9
ATGGGT |  |  | 1.36 ± 0.96
GAAGCA |  | 0.92 ± 0.54 | 0.987 ± 0.14
GACGTT | 1.51 ± 0.6 | 1.95 ± 0.25 | 2.25 ± 0.83
CGCTCG | 0.98 ± 0.46 |  | 1.83 ± 0.12
CGCCCT | 2.35 ± 0.5 | 2.5 ± 0.76 | 3.34 ± 0.87
TCACGT |  |  | 2.17 ± 1.9
TCAAAC | 1.67 ± 0.57 | 2.29 ± 0.36 | 3.35 ± 1.1
GGCCCG | 0.189 ± 0.11 |  | 0.796 ± 0.22
CACCTT | 2.74 ± 1.1 | 3.78 ± 0.4 | 4.75 ± 1.7
GTGGGG |  |  | 1.49 ± 1.3
TCGATT | 2.16 ± 0.43 | 1.87 ± 0.66 | 3.05 ± 1.1

Sequence | relative kcat/Km [1] | relative kcat/Km [2] | relative kcat/Km [3]
TCTCTT | 1.52 ± 0.23 | 2.64 ± 0.56 | 3.18 ± 1.3
CAATCG |  | 0.566 ± 0.54 | 1.17 ± 0.2
CTGCTA | 0.997 ± 0.058 | 0.732 ± 0.51 | 1.61 ± 0.3
GCGCAG | 1.13 ± 0.61 | 0.385 ± 0.34 | 1.7 ± 0.14
ATAAGG |  |  | 1.16 ± 0.062
GCATAT | 2.21 ± 0.23 | 2.98 ± 0.44 | 4.59 ± 2.3
ACATAT | 2.86 ± 0.79 | 4.26 ± 0.58 | 6.5 ± 3.1
TGCCCA | 2.72 ± 0.044 | 1.88 ± 0.82 | 2.73 ± 1.4
ATGACG |  |  | 1.18 ± 0.18
GTGATT | 2.28 ± 0.43 | 1.58 ± 0.37 | 1.61 ± 0.32
ACGTCC | 2.17 ± 1.1 | 3.58 ± 0.83 | 4.18 ± 1.6
GGTGTA |  | 0.493 ± 0.057 | 1.2 ± 0.96
GCGAGC | 0.191 ± 0.091 | 0.229 ± 0.19 | 0.977 ± 0.47
TCTTTG |  | 0.542 ± 0.4 | 1.699 ± 0.016
CTGGAT |  |  | 0.85 ± 0.41
ACGGGA |  |  | 1.44 ± 1.2
GTCTGA | 3.86 ± 1.8 | 4.82 ± 1.2 | 6.97 ± 2.6
CAGTAG | 1.92 ± 1.4 | 1.74 ± 0.43 | 2.83 ± 0.14
GGGATC | 1.19 ± 0.85 | 1.51 ± 0.049 | 1.47 ± 0.93
GGCGAT | 1.24 ± 0.38 | 1.52 ± 0.5 | 2.32 ± 0.83
CAACAT | 2.71 ± 1 | 2.93 ± 0.74 | 3.93 ± 1.4
GCTACA | 0.636 ± 0.073 | 1.03 ± 0.29 | 1.25 ± 0.11
CATCAA | 2.69 ± 0.095 | 3.35 ± 0.32 | 4.59 ± 1.9
